Over roughly 33,000 sequences, “E-score (-0.5 to 0.5)” has its median near -0.043; the highest 2% begin near 0.37. The list shows a part of the results.
The sequences below were run against T1, Upc2 (UniProt Q12151) (assay: PBM E-score (8-mer binding enrichment) (E-score (-0.5 to 0.5)); higher = stronger / more preferred TF binding; most listed sequences are background and not binding sites). Conditions: protein concentration: 200 nM; construct: GST-full length.
T1 sequence: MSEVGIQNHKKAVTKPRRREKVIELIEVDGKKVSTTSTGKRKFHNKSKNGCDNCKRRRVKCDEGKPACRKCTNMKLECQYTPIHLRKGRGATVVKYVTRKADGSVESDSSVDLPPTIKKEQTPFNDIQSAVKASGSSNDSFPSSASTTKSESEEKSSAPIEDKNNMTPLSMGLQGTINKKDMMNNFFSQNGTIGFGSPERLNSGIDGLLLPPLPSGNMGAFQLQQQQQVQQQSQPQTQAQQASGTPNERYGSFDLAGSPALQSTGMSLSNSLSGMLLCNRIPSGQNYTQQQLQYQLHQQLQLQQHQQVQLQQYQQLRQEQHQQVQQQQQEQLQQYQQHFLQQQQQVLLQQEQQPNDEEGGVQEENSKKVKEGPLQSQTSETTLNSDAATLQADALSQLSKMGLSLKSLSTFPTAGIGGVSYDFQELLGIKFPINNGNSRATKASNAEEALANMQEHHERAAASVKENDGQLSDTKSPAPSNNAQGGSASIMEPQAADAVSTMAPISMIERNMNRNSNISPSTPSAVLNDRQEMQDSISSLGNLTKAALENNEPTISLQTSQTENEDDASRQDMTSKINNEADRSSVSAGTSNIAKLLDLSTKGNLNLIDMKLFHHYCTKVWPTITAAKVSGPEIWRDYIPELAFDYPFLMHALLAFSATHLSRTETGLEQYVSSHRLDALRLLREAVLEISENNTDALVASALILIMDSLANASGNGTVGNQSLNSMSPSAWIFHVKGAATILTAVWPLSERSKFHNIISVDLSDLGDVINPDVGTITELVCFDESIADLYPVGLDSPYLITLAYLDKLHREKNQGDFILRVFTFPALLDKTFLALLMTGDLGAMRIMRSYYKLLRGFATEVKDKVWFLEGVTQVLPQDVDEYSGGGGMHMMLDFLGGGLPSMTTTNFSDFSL
Method in brief: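 For each ungapped eight-base word taken together with its reverse complement, the Universal PBM Analysis Suite assigned an E-score. Binding data came from GST-tagged yeast transcription factors, applied at about 100-200 nM, on universal all-10-mer Agilent arrays made double-stranded by primer extension. Fluorescent anti-GST marked bound protein, and scans were normalised with masliner.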

Sequence | PBM E-score
GTATTTTA | 0.147
AGATGGCG | -0.163
CACCATAA | -0.0218
ATCATTCG | 0.183
TACCAGCA | 0.124
GGGAGCAC | -0.148
GATATAGC | 0.113
AGATACGG | 0.307
TAAAGGGA | -0.0549
AAGTCCGA | -0.105
GTTTCTCA | -0.0898
TAGAGGCA | -0.107
AAGCTGGA | -0.0494
CACCATCA | -0.133
AACTGGTG | -0.163
CAAGCCCA | -0.193
CAATCGAA | 0.0705
GACACTCC | -0.166
CCAGGAGC | -0.0583
ATCCAATG | -0.334
CTCATGGA | -0.27
GGGATGTA | -0.0478
AAGAGACC | -0.0923
GTATTGAC | -0.0608
ACGACCGA | 0.358

Sequence | PBM E-score
GGGGAAAC | -0.118
CCTTTTAA | 0.0443
CTGCGATA | 0.0685
AAGAGCCA | -0.0122
GACACATC | -0.036
AGCAGTAT | -0.0128
AACGTATT | 0.212
GGGGAGAC | -0.258
CAGCTAAA | 0.134
CAACATGA | -0.0461
GCCTTTCC | -0.245
GCATATCA | 0.00103
GCGTTAAA | 0.241
AAACCAAT | -0.135
GGAAACCC | -0.0863
AACTCAGA | -0.121
AAAATGCA | -0.23
CCTTTCCG | -0.184
CTTCACGC | 0.0017
CACAGTGC | -0.158
ATCCACTA | -0.0471
CTCCCGAA | -0.129
AAATTTTA | 0.0925
GCGCCACA | -0.00805
AGACGCCC | -0.0568

Sequence | PBM E-score
CCAAAATC | -0.0684
AACGTGAT | 0.0242
CCGATTGA | -0.0444
CCATGGCG | -0.111
CTTAAAGC | 0.0841
CCACTGGA | -0.17
ATCCTGAG | -0.0282
ATGTGCCA | -0.225
CCTATCCC | -0.0129
AATTACAG | 0.103
CACACTGC | -0.122
CAGTTCCA | -0.128
AGTCCTAT | -0.181
CCTCAACA | 0.005
CGCTCAAG | 0.162
TCCCAACA | -0.132
CGAAGCAA | 0.138
ACCCAGTC | -0.107
AAGGTGAA | -0.0909
AGTCAAGA | -0.0104
ATTTGCTA | -0.248
AAAATTTT | 0.0821
AACCGTAG | 0.103
GTAGAAAC | 0.0447
CGAACCAA | 0.134

Sequence | PBM E-score
AAAGTTCG | 0.113
GGACTTAA | -0.0235
AAAATCAC | -0.0435
CCCGCGAG | -0.00772
AAGTAGTC | -0.0992
CAAGGCCG | -0.109
TCAGAGGA | -0.236
CGCTGCAG | -0.127
AGCCACTC | -0.12
GGCATAGA | -0.124
GATGTTAC | 0.0419
CGAAAAAA | 0.215
ATCCCAGC | -0.0536
CTTACCTC | -0.148
ACGCTGCG | 0.102
GCAGACTA | -0.21
CATGTTCG | 0.132
GGGATGGA | -0.11
TAACGTGA | -0.0783
CCGAAAGC | -0.0402
CGTCCCTC | -0.106
CCGTTTCC | 0.134
AAGTGGCT | -0.115
ATCAAGGA | -0.144
ACCGACCA | 0.221

Sequence | PBM E-score
AAAGATCA | 0.00184
ACACCTAC | -0.0295
ATGTAAAA | 0.0161
CCTTTCCC | -0.315
ACCGTCTC | 0.00181
CCGTTGAC | 0.0523
ATATTCAT | 0.0497
CATACCGG | -0.156
CTGGTGTA | -0.135
CCATCTCG | 0.0626
ACGATTGG | 0.217
AGCGGTTA | 0.0122
AGGGAGCG | 0.00315
ATGCCTTC | -0.267
GCTCTACA | -0.0883
AGTACTAC | 0.119
AGAGAAGC | -0.184
GGCTGGCA | -0.349
AAAATCAG | -0.013
CAAGGTAA | 0.142
ATGGATTG | 0.0337
CTCTTATC | 0.111
CTTATCAA | -0.00408
GATTTTAA | 0.0246
ACAACAGG | -0.0579

Sequence | PBM E-score
CTAAAAAA | -0.0251
ATGAGTGC | 0.16
ATGCAAAT | 0.0383
AACCATCA | 0.0454
ATTCATAC | 0.129
AGGCGACG | -0.0639
GGGGACCC | -0.22
AATCTCCT | -0.29
CCCGTGAC | -0.203
GTCGGATA | 0.313
ACTATATC | 0.00314
CATAGCTA | -0.138
ATGGAGAG | -0.313
CGAGGCCA | 0.192
ACAAGGGC | -0.31
AGTGTAAG | -0.0723
CCCTAAGG | -0.302
AGCGGAGA | -0.176
TCAGTCAA | -0.0478
GATTGCGC | -0.156
CAGGGCGC | -0.187
CGCGGAAC | 0.299
GGCGACAA | -0.25
ACAGCCAA | -0.121
ATATCCCA | 0.038

Sequence | PBM E-score
CAGTTGTA | -0.102
CGTCAATC | -0.0306
AGAAGTAG | -0.0709
ATTTTGGC | -0.0172
ACTGGTTA | -0.0603
ACTTTAAC | 0.0733
ACAGGCCA | -0.158
AGGTTGGA | -0.118
CTTTCCTA | -0.298
ATCGTGTG | 0.0705
CTGTTGAA | -0.0374
TACCCCGA | -0.0408
GTACAAAA | 0.31
ACTCAAGG | -0.259
ATTTCACC | -0.0598
CAACGTTC | 0.0866
CCGGAAAC | 0.00074
GGTCAGAA | -0.0416
GGAATTAA | 0.143
CATACAAG | -0.192
CCATGAGC | -0.328
CTCCGAAC | -0.0473

— the supplement of paper PMC3334620
